The other results are listed elsewhere or left out.
T1: UNK ZnF1-3 (human, UniProt Q9C0B0 31-174)
T1 sequence: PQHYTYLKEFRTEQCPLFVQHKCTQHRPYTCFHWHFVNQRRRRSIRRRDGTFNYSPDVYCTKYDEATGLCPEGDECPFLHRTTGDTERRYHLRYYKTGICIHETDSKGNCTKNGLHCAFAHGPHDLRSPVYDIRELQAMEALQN

B1: chrX:71549400:71549401:+_ENSMUSG00000019087_ENSMUST00000019231|mus_hu|mus_mus_mus_hu_False|18_38 (ssRNA)
RNA: GGGAGUUCUACAGUCCGACGAUCGCAGUAGGAAGAGGGAAGCUCUUCAGUCCAGUGCGCUGCAGGGUGGGAAAGCAACAACACGGACACCGUCCCACCUCAAUUCCCCCCACUGGCAUGUCACACAACAAUCUGGGUCAAAGACAACAGAGGAUUGAGCAUCA
B2: chr1:220315150:220315151:+_ENSG00000067704_ENST00000302637|hu_hu|FALSE|FALSE (ssRNA)
RNA: GGGAGUUCUACAGUCCGACGAUCAGCCAGGUGAGGAAGAAUGGGAGCAAAAGAACGAACUAUUACAUCCAAAAUUUCAACUAAUGCAGUCUGACAAGAGCGUCGUUUGGGGUCAUUUUCCUUUUCACAAUAGAGCCUAUCUUUCAACAGAGGAUUGAGCAUCA
B3: chr18:35731935:35731936:+_ENSMUSG00000037236_ENSMUST00000166793|perfect_dup|FALSE|FALSE (ssRNA)
RNA: GGGAGUUCUACAGUCCGACGAUCAGGGAGUGGACCUCUACUUCCAAUGUUAAAUAUAGACUGCAAAUUAUGGGAAGAAGUACUAGCAGAAGACAGUGCACUAUGAGCUCCUUGUUGAUUCAAUGAAGAACUCAUUCCAAGAUUCAACAGAGGAUUGAGCAUCA
B4: chr14:89338683:89338684:+_ENSG00000165533_ENST00000346301|hu_hu|hu_hu_hu_mus_False|68_98 (ssRNA)
RNA: GGGAGUUCUACAGUCCGACGAUCGUGGUUGUUGUGGACCAGAGCCAGCCUGAAGCAUUGGUGGGCCAAAUUUGUAUCUCCGAUUCCCACAGCUAUGUGCCCCAGGUUGUACCAGACAUCAGCUGCCUCUUCUUCAUUUUCAGCCAACAGAGGAUUGAGCAUCA
B5: chr1:36558744:36558745:+_ENSG00000116863_ENST00000373178|hu_mus|FALSE|FALSE (ssRNA)
RNA: GGGAGUUCUACAGUCCGACGAUCUAUGGUGUCUGUGUCCCCACCAAGUGAGAUGGAGUAGAUGAGAGUCCUCUGGAGACUGUUGAAGGUGGAGGGGAUCUCAGGGUGAGGCUCCAUGCAGCGCAGGAAGCAGUAGAUGGCGGUCAACAGAGGAUUGAGCAUCA
B6: chr9:111175386:111175387:+_ENSMUSG00000046785_ENSMUST00000060711|mus_hu|FALSE|FALSE (ssRNA)
RNA: GGGAGUUCUACAGUCCGACGAUCUUCCGUUAGUAAAGUCUGAAAUUCAGGUCGCCUAACGCCUCUGGUCUUAAUCAAAACUAUCCAUUCGGAUAUGGUAUUUAUGAUCUGAUUAACAUCUACAUCAUAGGAGCUCAACAGUUCCAACAGAGGAUUGAGCAUCA
B7: chr4:38126685:38126686:+_ENSG00000065882_ENST00000510573|hu_mus|motif|central (ssRNA)
RNA: GGGAGUUCUACAGUCCGACGAUCGGUCUUCUCCAUCUGCACCAGGCCCAGGUUGGGGAGUGUGUUCUUUAUGAAGUCCACGGUGGUUUCCAGGUUCUCAUGCUGUAGAAUCAAGGGCUUAUGGCUCCCCAAAAGACUUAAAGCCAACAGAGGAUUGAGCAUCA
B8: chr3:119456006:119456007:-_ENSMUSG00000028134_ENSMUST00000029780|mus_hu|motif|central (ssRNA)
RNA: GGGAGUUCUACAGUCCGACGAUCAAUAUGAAGUACACGAGAAGGAGCACCAUCCAUUUUAUCUUCUCCUUUAAAUUUUUUACGGUCAUUACCAUUGGCUGUAACUACCAUGCUGCUCAUAUUAGAGUUCGGACUACUGAGAACCAACAGAGGAUUGAGCAUCA
B9: chr16:45382771:45382772:-_ENSMUSG00000022661_ENSMUST00000163230|mus_mus|mus_mus_mus_hu_True|78_108 (ssRNA)
RNA: GGGAGUUCUACAGUCCGACGAUCCUGAGUGUUAUUGUAAGACAAAUGGACAGGGAGAGCAUGCUUUUCAAAAAAUGUGAGCUAUUGUCUAAGACUAACAAUAUUUAUCUAGCUAUAAAAAUAAGUUAAAUGAAUAAGUUAAGACAACAGAGGAUUGAGCAUCA
B10: chr10:126435856:126435857:+_ENSMUSG00000078429_ENSMUST00000105256|mus_mus|motif|central (ssRNA)
RNA: GGGAGUUCUACAGUCCGACGAUCAGUGGAAACCCUUACCUGGCCCUUUAUCAAACUGGUCCUGUGUCCAAAGCUCCCCCGGUAAGAGGGACAGGAACGUCAGGCUUUUGAUGCGAAGCCCAAUCAGACACACACUGUGUCCCUCAACAGAGGAUUGAGCAUCA
B11: chr9:72849539:72849540:+_ENSMUSG00000034563_ENSMUST00000085350|mus_mus|motif|central (ssRNA)
RNA: GGGAGUUCUACAGUCCGACGAUCGUUCCCCAUUUCUUCCAGCUUAGGUGGUUCAAGUGUAACAAUAUCCGAAUCGUCACGGGUAGUUCCGAAAUAGACAUUGUCUUCAGGGGAAGGUGCUUCCUCCACCUCAGCUGCUGACUUCAACAGAGGAUUGAGCAUCA
B12: 212459462_212459582_644_3pUTR_ENSG00000066027_ENST00000261461|human|control|control (ssRNA)
RNA: GGGAGUUCUACAGUCCGACGAUCACUGCGACGAGCCCUGGGAGCGCUUCUGCCUCUGCGCCUUGCGGACCGAUUUCCGGGUGAAGCCGUCCACUUUCUCCGAGGCCGAGAUGGCGGCGCUGGCAGCCCCCGCCGGCGGCGACGCAACAGAGGAUUGAGCAUCA
B13: chrX:71549762:71549763:+_ENSMUSG00000019087_ENSMUST00000019231|mus_mus|mus_mus_mus_hu_False|8_108 (ssRNA)
RNA: GGGAGUUCUACAGUCCGACGAUCAAAGUGUACCACUUCUUAUUGUUAGCACAACAUCACCAGAAAACGAUAACGACAGCCAAGCAGGACAGACAGUUAAGUAGUACUUCCACACUCCCAAACUCAGAGGAACCUCAAACCUUACAACAGAGGAUUGAGCAUCA
B14: chr4:148551591:148551592:-_ENSMUSG00000063077_ENSMUST00000060537|mus_hu|mus_mus_mus_hu_False|68_68 (ssRNA)
RNA: GGGAGUUCUACAGUCCGACGAUCACCUGACAAAAUUAAAUAUCCCUGUAAAUUAGACAAUAAGCAGCAGGUAACAAAGUCUUUGCUUUGGAAUAUGUGCCAGGAAAAGUCAUCUUGUUUUUAGAUCUCAAGAGACAGUUCACACAACAGAGGAUUGAGCAUCA
B15: chr1:46159212:46159213:+_ENSG00000159596_ENST00000372025|hu_mus|hu_hu_hu_mus_True|58_108 (ssRNA)
RNA: GGGAGUUCUACAGUCCGACGAUCUCUGAUCCCACCCAAGAAAGCUAGGAAACCGGCUCCAUAAGCCAUCUGAGUGAAAGCUAAUAUGGGGAUAUAAGACUUUGUUAUUACCAUGAGAAGUGGGGGAGCAGUAAAGGGGAUUAACAACAGAGGAUUGAGCAUCA
B16: chr5:136384420:136384421:-_ENSMUSG00000051391_ENSMUST00000055808|mus_hu|FALSE|FALSE (ssRNA)
RNA: GGGAGUUCUACAGUCCGACGAUCGUACGACAGCUACAUAAUGACUCACAUUCAUGAUAUUCCAUCACUGAGGAAACUGCUAAAGAUGGUCCGUGUGUGAAAUAAUUCCUUAGAGAAACACGGAGCUGGAAAAAUAAUCACUGACAACAGAGGAUUGAGCAUCA
B17: chr17:56552419:56552420:-_ENSMUSG00000013236_ENSMUST00000086828|mus_mus|mus_mus_mus_hu_False|38_108 (ssRNA)
RNA: GGGAGUUCUACAGUCCGACGAUCAAAGUUUUUUUCUUUUAAAAAAAAUGAAAUGUCACGGGAUACAGUUACACUGAGAGUUUUAAAAGAAAGCUGGAAAAAAAAUGCAGCCCAGUGUCCCCAGGCUGCAGAGCGGGGAGGAGCCAACAGAGGAUUGAGCAUCA
B18: 21793098_21796719_1197_3pUTR_ENSMUSG00000028248_ENSMUST00000098238|mouse|control|control (ssRNA)
RNA: GGGAGUUCUACAGUCCGACGAUCUUCUUCAUCUGUGACGUCCAGGAGAAUUUCAGUUAGAAGCAUCUUUGUCAGCAACAUCAUUUGGUACUCCUUCUCCUCUUCCGUCAUCUCUGGUUCACUGUGCUCUUCUUGGGGAGCUGGCAACAGAGGAUUGAGCAUCA
B19: chr1:224612315:224612316:-_ENSG00000162923_ENST00000295024|hu_hu|FALSE|FALSE (ssRNA)
RNA: GGGAGUUCUACAGUCCGACGAUCCGUCAAUUCACAGCGUAGAACUUGAAGUGCCUCCAGGACCUUGCCAUCCUCCAGGUAUUCUAGGUACUUCUGCUGCAGCAGCAAAAACUUCAUCCUCACAAUUAUUCCCAACAACGUUUGCAACAGAGGAUUGAGCAUCA
B20: chr15:78454051:78454052:+_ENSG00000166411_ENST00000558554|hu_hu|FALSE|FALSE (ssRNA)
RNA: GGGAGUUCUACAGUCCGACGAUCAUGCUCAAUUCCACUGUAUUCUCCUUCUGUGUUCUCUCGAAUGGUCACAAUAUUUACAUCGGUGUAAGGGGUUUUAUAGCCUUUCAAGCCCAUCUUGUUCUUAUCCAUGGACUCUUUAGCCAACAGAGGAUUGAGCAUCA
B21: chr2:198365819:198365820:+_ENSG00000115541_ENST00000409468|hu_hu|FALSE|FALSE (ssRNA)
RNA: GGGAGUUCUACAGUCCGACGAUCAGUUUCAGCAGCACUCCUUUCAACCAAUACUCGGUCAAAGAGUGGAAGAAACUUUCUAAACGCUUGUCCUGCCAUUACUCCCUCCGCCUCAGACUCGUACUCUGCUCUAGUGUAGCGCCGCAACAGAGGAUUGAGCAUCA
B22: chrX:131284163:131284164:-_ENSMUSG00000050394_ENSMUST00000052431|mus_hu|motif|central (ssRNA)
RNA: GGGAGUUCUACAGUCCGACGAUCGGGGCUCGUGUUUCUAGCCAUUGAGAGGCUGGCCAAAUGGCUAUUGAUAUCCUGGCGGAAUGGAAAGCCCGCAUCCUUGGGCUCGGCAAACAACAGUUUUCCCUGAAUGAAAAGACACUUCAACAGAGGAUUGAGCAUCA

Each binder was assayed against T1, UNK ZnF1-3 (assay: nsRBNS (natural sequence RNA bind-n-seq); RBNS binding buffer (assumed for nsRBNS): 25 mM Tris pH 7.5, 150 mM KCl, 3 mM MgCl2, 0.01% Triton X-100, 500 ug/ml BSA, 20 U/ml SUPERase-In, 4 C; UNK is unkempt and MSI1 is Musashi-1; names of the RNAs are library labels; protein concentration not given here; high values mean tight binding).

Row | Binder | binding signal [enrichment R]
1 | B1 | 1.15
2 | B2 | 2.51
3 | B3 | 1.13
4 | B4 | 0.787
5 | B5 | 1.02
6 | B6 | 0.714
7 | B7 | 0.931
8 | B8 | 2.54
9 | B9 | 2.14
10 | B10 | 0.733
11 | B11 | 0.712
12 | B12 | 0.745
13 | B13 | 1.69
14 | B14 | 1.14
15 | B15 | 1.34
16 | B16 | 1.28
17 | B17 | 1.92
18 | B18 | 0.675
19 | B19 | 0.855
20 | B20 | 0.577
21 | B21 | 1.03
22 | B22 | 0.998

— article PMC12136788
